Assay [1] concerns HSkMC (human skeletal muscle cells). Briefly: cytotoxicity call (relative viability < 0.9). Conditions: 10 µM.
Assay [2] relates to HepG2. The experiment in a line: cytotoxicity call (relative viability < 0.9). To be noted: 10 µM.
The test system of assay [3] is S. aureus RN4220. Briefly: growth inhibition call (relative growth <= 0.2). To be noted: 50 µM.

The other results are listed elsewhere or left out.

As to `O=C(Nc1ccc2c(c1)[C@@H]1C[C@H](CC(=O)N3CCc4ccccc4C3)O[C@H](CO)[C@@H]1O2)C1CCOCC1`, the cytotoxicity call in assay [1] and in assay [2] was “inactive” in each case. The growth inhibition call in assay [3] is “inactive”.

`NCCNc1cccc2ccccc12`: the cytotoxicity call in assay [1] and in assay [2] was “inactive” each time. Also, the growth inhibition call in assay [3] was “inactive”.

As for `Cc1ccc(S(=O)(=O)N(C)C[C@H]2Oc3ccc(NC(=O)c4ccncc4)cc3C(=O)N([C@@H](C)CO)C[C@@H]2C)cc1`, the cytotoxicity call in assay [1] and in assay [2] was “inactive” in each case. Moreover, in assay [3], the growth inhibition call is “inactive”.

Turning to `C=C(C)C1CC=C(CO)CC1` (stereo not drawn), the cytotoxicity call in assay [1] and in assay [2] was “inactive” each time. Further, the growth inhibition call in assay [3] was “inactive”.

With `Cc1noc(C)c1S(=O)(=O)Nc1ccc2c(c1)C(=O)N([C@H](C)CO)C[C@H](C)[C@H](CN(C)Cc1ccc(C(F)(F)F)cc1)OCCCC[C@H](C)O2`, the cytotoxicity call in assay [1] and in assay [2] was “inactive” in each case. Also, the growth inhibition call in assay [3] was “inactive”.

`O=C(C[C@@H]1C[C@@H]2c3cc(NS(=O)(=O)c4ccc(F)cc4)ccc3O[C@@H]2[C@@H](CO)O1)NCc1cccc(F)c1`: the cytotoxicity call in assay [1] and in assay [2] was “inactive” throughout. In addition, the growth inhibition call in assay [3] was “inactive”.

Regarding `COc1ccc(S(=O)(=O)N(C)C[C@@H]2Oc3c(NC(=O)c4cnccn4)cccc3C(=O)N([C@@H](C)CO)C[C@@H]2C)cc1`, the cytotoxicity call in assay [1] and in assay [2] was “inactive” throughout. The growth inhibition call in assay [3] is “inactive”.

As for `Cc1nc(COP(=O)(O)O)cc2c1[O][Mn][O]c1c(cc(COP(=O)(O)O)nc1C)CN(CC(=O)O)CCN(CC(=O)O)C2`, the cytotoxicity call in assay [1] and in assay [2] was “inactive” throughout. In addition, the growth inhibition call in assay [3] was “inactive”.

In the case of `C[C@H](CO)N1C[C@H](C)[C@H](CN(C)C(=O)Cc2ccccc2)OCCCC[C@H](C)Oc2ccc(NC(=O)Nc3ccc4c(c3)OCO4)cc2C1=O`, the cytotoxicity call in assay [1] is “inactive”. The cytotoxicity call in assay [2] was “active”. For the same compound, the growth inhibition call in assay [3] was “inactive”.

As to `C[C@H](O)C#Cc1ccc2c(c1)O[C@H](CN(C)C(=O)Nc1ccccc1)[C@@H](C)CN([C@H](C)CO)S2(=O)=O`, the cytotoxicity call in assay [1] and in assay [2] was “inactive” throughout. Also, the growth inhibition call in assay [3] is “inactive”.

Consider `CCc1nc(C(N)=O)c(Nc2ccc(N3CCC(N4CCN(C)CC4)CC3)c(OC)c2)nc1NC1CCOCC1`, for which the cytotoxicity call in assay [1] was “inactive”. Also, the cytotoxicity call in assay [2] is “active”. For the same compound, the growth inhibition call in assay [3] is “inactive”.

Turning to `COc1ccc(S(=O)(=O)Nc2ccc3c(c2)CC(=O)N([C@@H](C)CO)C[C@@H](C)[C@@H](CN(C)S(=O)(=O)c2c(C)noc2C)O3)cc1`, the cytotoxicity call in assay [1] and in assay [2] was “inactive” each time. In addition, in assay [3], the growth inhibition call was “inactive”.

In the case of `C[C@H]1CCCCO[C@H](CN(C)C(=O)Cc2ccccc2)[C@@H](C)CN([C@@H](C)CO)C(=O)c2cc(NC(=O)c3ccccc3)ccc2O1`, the cytotoxicity call in assay [1] and in assay [2] was “inactive” throughout. In addition, in assay [3], the growth inhibition call was “inactive”.

With `Clc1ccc2nc(Cl)cc(-c3ccccc3)c2c1`, the cytotoxicity call in assay [1] and in assay [2] was “inactive” throughout. In addition, the growth inhibition call in assay [3] was “inactive”.

With `C[C@@H]1CCCCO[C@H](CN(C)C(=O)Nc2ccc3c(c2)OCO3)[C@@H](C)CN([C@@H](C)CO)C(=O)c2cc(NS(=O)(=O)c3ccccc3)ccc2O1`, the cytotoxicity call in assay [1] and in assay [2] was “inactive” throughout. In addition, the growth inhibition call in assay [3] was “inactive”.

With `Nc1nc(Cl)nc2c1ncn2[C@H]1C[C@@H](O)[C@@H](COP(=O)(O)OP(=O)(O)OP(=O)(O)O)O1`, the cytotoxicity call in assay [1] and in assay [2] was “inactive” each time. The growth inhibition call in assay [3] is “inactive”.

In the case of `C=CC[C@@H](CC(=O)N(CCO)Cc1ccccc1)C(=O)N[C@@H](COC(=O)[C@@H](CC=C)CC(=O)OC(C)(C)C)Cc1c[nH]c2ccccc12`, the cytotoxicity call in assay [1] and in assay [2] was “inactive” each time. In addition, the growth inhibition call in assay [3] was “inactive”.

As to `C[C@@H]1CCCCO[C@H](CN(C)Cc2ccncc2)[C@@H](C)CN([C@@H](C)CO)C(=O)c2cc(NC(=O)c3ccccc3)ccc2O1`, the cytotoxicity call in assay [1] and in assay [2] was “inactive” each time. Besides, the growth inhibition call in assay [3] is “inactive”.

On to `C[C@H]1CCCCO[C@H](CN(C)Cc2ccc(Cl)c(Cl)c2)[C@@H](C)CN([C@@H](C)CO)C(=O)c2cc(NC(=O)c3ccccc3)ccc2O1`, for which the cytotoxicity call in assay [1] is “active”. Moreover, the cytotoxicity call in assay [2] was “inactive”. For the same compound, the growth inhibition call in assay [3] was “inactive”.

`COc1ccc(NC(=O)N(C)C[C@@H]2Oc3ccc(NS(=O)(=O)c4c(C)noc4C)cc3CC(=O)N([C@H](C)CO)C[C@H]2C)cc1`: the cytotoxicity call in assay [1] and in assay [2] was “inactive” in each case. The growth inhibition call in assay [3] is “inactive”.

Turning to `C[C@@H]1CCCCO[C@H](CN(C)Cc2ccc(Cl)c(Cl)c2)[C@H](C)CN([C@H](C)CO)C(=O)c2cc(NS(=O)(=O)c3cccs3)ccc2O1`, the cytotoxicity call in assay [1] and in assay [2] was “inactive” throughout. Besides, in assay [3], the growth inhibition call is “inactive”.

Turning to `C[C@@H]1CN([C@H](C)CO)C(=O)Cc2cc(NS(C)(=O)=O)ccc2O[C@@H]1CN(C)Cc1ccc(C(F)(F)F)cc1`, the cytotoxicity call in assay [1] and in assay [2] was “inactive” in each case. The growth inhibition call in assay [3] was “inactive”.

Take `COc1ccc(CN(C)C[C@H]2OCCCC[C@@H](C)Oc3ccc(NC(=O)Nc4c(C)noc4C)cc3C(=O)N([C@H](C)CO)C[C@@H]2C)cc1`: the cytotoxicity call in assay [1] and in assay [2] was “inactive” in each case. Besides, in assay [3], the growth inhibition call is “inactive”.

Regarding `Cc1noc(C)c1NC(=O)N(C)C[C@H]1Oc2ccc(NS(C)(=O)=O)cc2C(=O)N([C@@H](C)CO)C[C@@H]1C`, the cytotoxicity call in assay [1] and in assay [2] was “inactive” in each case. Moreover, the growth inhibition call in assay [3] was “inactive”.

Consider `C[C@H]1CN([C@@H](C)CO)C(=O)c2cccc(NC(=O)Nc3ccc4c(c3)OCO4)c2O[C@H]1CN(C)Cc1ccc(Oc2ccccc2)cc1`, for which the cytotoxicity call in assay [1] was “inactive”. For the same compound, the cytotoxicity call in assay [2] is “active”. For the same compound, in assay [3], the growth inhibition call was “inactive”.

In the case of `Cc1noc(C)c1S(=O)(=O)N(C)C[C@@H]1Oc2ccc(NS(C)(=O)=O)cc2CC(=O)N([C@@H](C)CO)C[C@H]1C`, the cytotoxicity call in assay [1] and in assay [2] was “inactive” throughout. Moreover, in assay [3], the growth inhibition call was “inactive”.

Turning to `C[C@@H]1CN([C@@H](C)CO)C(=O)Cc2cc(NC(=O)C3CC3)ccc2O[C@@H]1CN(C)C(=O)Nc1ccccc1`, the cytotoxicity call in assay [1] and in assay [2] was “inactive” in each case. In addition, the growth inhibition call in assay [3] was “inactive”.

Consider `Cc1ccc(S(=O)(=O)Nc2ccc3c(c2)C(=O)N([C@@H](C)CO)C[C@H](C)[C@H](CN(C)Cc2ccccc2)OCCCC[C@@H](C)O3)cc1`, for which the cytotoxicity call in assay [1] and in assay [2] was “inactive” in each case. Besides, in assay [3], the growth inhibition call was “inactive”.

In the case of `C[C@@H]1CCCCO[C@@H](CN(C)S(=O)(=O)c2cccs2)[C@@H](C)CN([C@@H](C)CO)C(=O)c2cc(NC(=O)Nc3cccc4ccccc34)ccc2O1`, the cytotoxicity call in assay [1] and in assay [2] was “inactive” each time. Also, in assay [3], the growth inhibition call was “inactive”.

Turning to `C[C@@H]1CCCCO[C@H](CN(C)S(=O)(=O)c2cn(C)cn2)[C@H](C)CN([C@H](C)CO)C(=O)c2cc(NC(=O)CCCN(C)C)ccc2O1`, the cytotoxicity call in assay [1] and in assay [2] was “inactive” each time. In assay [3], the growth inhibition call is “inactive”.

Turning to `C[C@@H]1CCCCO[C@@H](CN(C)C(=O)c2ccccc2)[C@@H](C)CN([C@H](C)CO)C(=O)c2cc(NC(=O)CCCCCC(=O)Nc3ccccc3N)ccc2O1`, the cytotoxicity call in assay [1] and in assay [2] was “inactive” in each case. The growth inhibition call in assay [3] is “inactive”.

As for `CSc1ccccc1CN`, the cytotoxicity call in assay [1] and in assay [2] was “inactive” each time. The growth inhibition call in assay [3] was “inactive”.

With `Cn1c(C(=O)N[C@H](CO)Cc2c[nH]c3ccccc23)cc(=O)n(C)c1=O`, the cytotoxicity call in assay [1] and in assay [2] was “inactive” each time. Moreover, the growth inhibition call in assay [3] was “inactive”.

Take `C[C@@H]1CN([C@@H](C)CO)C(=O)CCCn2cc(nn2)CO[C@@H]1CN(C)C(=O)Nc1ccc(C(C)(C)C)cc1`: the cytotoxicity call in assay [1] and in assay [2] was “inactive” throughout. For the same compound, the growth inhibition call in assay [3] was “inactive”.

In the case of `C[C@@H]1CCCCO[C@@H](CN(C)C(=O)CCC(F)(F)F)[C@@H](C)CN([C@H](C)CO)C(=O)c2cc(NS(=O)(=O)c3ccc(F)cc3)ccc2O1`, the cytotoxicity call in assay [1] and in assay [2] was “inactive” in each case. For the same compound, the growth inhibition call in assay [3] is “inactive”.

As for `C[C@@]1(O)[C@H](O)[C@@H](CO)O[C@H]1n1ccc(N)nc1=O`, the cytotoxicity call in assay [1] and in assay [2] was “inactive” in each case. Also, in assay [3], the growth inhibition call is “inactive”.

The values are drawn from the antibiotic and cytotoxicity screens of Wong et al. (2023).
